Reference: paper PMC11451635, “A Broad Spectrum Lasso Peptide Antibiotic Targeting the Bacterial Ribosome” (Research Square, 2024)
In brackets after ≈: the same amount, converted by molar mass. Read-outs that look alike come from different tables or passages of the source. Where a SMILES comes first, the peptide text is derived from it. Bridges are numbered along the chain shown (N, C = ends). Where no end group is shown, it is not given here.

Legend:
[1] = tested on: efflux impaired E. coli
[2] = tested on: E coli BW25113 mcr-1; conditions: MHB, 37°C, 18–22 h
[3] = tested on: Mycobacterium tuberculosis Ra; conditions: column MHB; method: Middlebrook 7H9 with 10% OADC, read after two to three days
[4] = tested on: RNA polymerase; conditions: cited from earlier work

CC(C)[C@H](NC(=O)CNC(=O)[C@H](CCCNC(=N)N)NC(=O)CNC(=O)[C@H](Cc1ccccc1)NC(=O)[C@H](CCCCN)NC(=O)CNC(=O)[C@@H]1CC(=O)N[C@@H](CO)C(=O)N[C@@H](CCCCN)C(=O)N[C@@H](CCCCN)C(=O)N[C@@H](CO)C(=O)N[C@@H](CCCCN)C(=O)N2CCC[C@H]2C(=O)NCC(=O)N1)C(=O)N[C@@H](CCCCN)C(=O)N[C@@H](CCCNC(=N)N)C(=O)NCC(=O)O [LAR, lariocidin] (SKKSKPGDGKFGRGVKRG-OH; lactam N-8)
MIC [1]: 2 to 4 µg/mL | MIC [2]: 64 µg/mL (≈ 34.2 µM) | MIC [3]: 4 to 8 µg/mL

microcin J25 (GGAGHVPEYFVGIGTPISFYG; not fully specified (bridges); UniProt Q9X2V7 38-58, looked up)
Block of RNA polymerase [4]: block the action of RNA polymerase

capistruin (GTPGFQTPDARVISRFGFN; lactam N-9 (inferred); UniProt P0DQM5 29-47, looked up)
Block of RNA polymerase ([4]; active against Gram-negative bacteria): block the action of RNA polymerase
